± gives the standard deviation of the averaged measurements. Laboratory Escherichia coli strains with one amino-acid change in an essential protein, pooled on minimal glucose agar with carbenicillin or gentamicin at twice the control MIC (plus kanamycin and chloramphenicol for the plasmids), 48 h. Fold change of barcode share against drug-free plates; higher = less susceptible. Active = above 20 in both replicates (the paper's putatively resistant). '<' = one read or none on drug, '>' = one read or none on a drug-free plate. Shares are relative, so most strains fall below 1 when a few take over. Listed are strains with at least 15 reads on both drug-free plates, and hits; most hits rest on fewer reference reads. Replicate rank correlation about 0.5. Edits are read from barcodes.
B1: panB L42A (protein)
chain: MKPTTISLLQKYKQEKKRFATITAYDYSFAKLFADEGLNVMAVGDSLGMTVQGHDSTLPVTVADIAYHTAAVRRGAPNCLLLADLPFMAYATPEQAFENAATVMRAGANMVKIEGGEWLVETVQMLTERAVPVCGHLGLTPQSVNIFGGYKVQGRGDEAGDQLLSDALALEAAGAQLLVLECVPVELAKRITEALAIPVIGIGAGNVTDGQILVMHDAFGITGGHIPKFAKNFLAETGDIRAAVRQYMAEVESGVYPGEEHSFH
B2: pabB L131Q (protein)
chain: MKTLSPAVITLLWRQDAAEFYFSRLSHLPWAMLLHSGYADHPYSRFDIVVAEPICTLTTFGKETVVSESEKRTTTTDDPLQVLQQVLDRADIRPTHNEDLPFQGGALGLFGYDLGRRFESLPEIAEQDIVQPDMAVGIYDWALIVDHQRHTVSLLSHNDVNARRAWLESQQFSPQEDFTLTSDWQSNMTREQYGEKFRQVQEYLHSGDCYQVNLAQRFHATYSGDEWQAFLQLNQANRAPFSAFLRLEQGAILSLSPERFILCDNSEIQTRPIKGTLPRLPDPQEDSKQAVKLANSAKDRAENLMIVDLMRNDIGRVAVAGSVKVPELFVVEPFPAVHHLVSTITAQLPEQLHASDLLRAAFPGGSITGAPKVRAMEIIDELEPQRRNAWCGSIGYLSFCGNMDTSITIRTLTAINGQIFCSAGGGIVADSQEEAEYQETFDKVNRILKQLEK
B3: pabB L131P (protein)
chain: MKTLSPAVITLLWRQDAAEFYFSRLSHLPWAMLLHSGYADHPYSRFDIVVAEPICTLTTFGKETVVSESEKRTTTTDDPLQVLQQVLDRADIRPTHNEDLPFQGGALGLFGYDLGRRFESLPEIAEQDIVPPDMAVGIYDWALIVDHQRHTVSLLSHNDVNARRAWLESQQFSPQEDFTLTSDWQSNMTREQYGEKFRQVQEYLHSGDCYQVNLAQRFHATYSGDEWQAFLQLNQANRAPFSAFLRLEQGAILSLSPERFILCDNSEIQTRPIKGTLPRLPDPQEDSKQAVKLANSAKDRAENLMIVDLMRNDIGRVAVAGSVKVPELFVVEPFPAVHHLVSTITAQLPEQLHASDLLRAAFPGGSITGAPKVRAMEIIDELEPQRRNAWCGSIGYLSFCGNMDTSITIRTLTAINGQIFCSAGGGIVADSQEEAEYQETFDKVNRILKQLEK
B4: pabB W141D (protein)
chain: MKTLSPAVITLLWRQDAAEFYFSRLSHLPWAMLLHSGYADHPYSRFDIVVAEPICTLTTFGKETVVSESEKRTTTTDDPLQVLQQVLDRADIRPTHNEDLPFQGGALGLFGYDLGRRFESLPEIAEQDIVLPDMAVGIYDDALIVDHQRHTVSLLSHNDVNARRAWLESQQFSPQEDFTLTSDWQSNMTREQYGEKFRQVQEYLHSGDCYQVNLAQRFHATYSGDEWQAFLQLNQANRAPFSAFLRLEQGAILSLSPERFILCDNSEIQTRPIKGTLPRLPDPQEDSKQAVKLANSAKDRAENLMIVDLMRNDIGRVAVAGSVKVPELFVVEPFPAVHHLVSTITAQLPEQLHASDLLRAAFPGGSITGAPKVRAMEIIDELEPQRRNAWCGSIGYLSFCGNMDTSITIRTLTAINGQIFCSAGGGIVADSQEEAEYQETFDKVNRILKQLEK
B5: pabB W141Q (protein)
chain: MKTLSPAVITLLWRQDAAEFYFSRLSHLPWAMLLHSGYADHPYSRFDIVVAEPICTLTTFGKETVVSESEKRTTTTDDPLQVLQQVLDRADIRPTHNEDLPFQGGALGLFGYDLGRRFESLPEIAEQDIVLPDMAVGIYDQALIVDHQRHTVSLLSHNDVNARRAWLESQQFSPQEDFTLTSDWQSNMTREQYGEKFRQVQEYLHSGDCYQVNLAQRFHATYSGDEWQAFLQLNQANRAPFSAFLRLEQGAILSLSPERFILCDNSEIQTRPIKGTLPRLPDPQEDSKQAVKLANSAKDRAENLMIVDLMRNDIGRVAVAGSVKVPELFVVEPFPAVHHLVSTITAQLPEQLHASDLLRAAFPGGSITGAPKVRAMEIIDELEPQRRNAWCGSIGYLSFCGNMDTSITIRTLTAINGQIFCSAGGGIVADSQEEAEYQETFDKVNRILKQLEK
B6: pabB W141A (protein)
chain: MKTLSPAVITLLWRQDAAEFYFSRLSHLPWAMLLHSGYADHPYSRFDIVVAEPICTLTTFGKETVVSESEKRTTTTDDPLQVLQQVLDRADIRPTHNEDLPFQGGALGLFGYDLGRRFESLPEIAEQDIVLPDMAVGIYDAALIVDHQRHTVSLLSHNDVNARRAWLESQQFSPQEDFTLTSDWQSNMTREQYGEKFRQVQEYLHSGDCYQVNLAQRFHATYSGDEWQAFLQLNQANRAPFSAFLRLEQGAILSLSPERFILCDNSEIQTRPIKGTLPRLPDPQEDSKQAVKLANSAKDRAENLMIVDLMRNDIGRVAVAGSVKVPELFVVEPFPAVHHLVSTITAQLPEQLHASDLLRAAFPGGSITGAPKVRAMEIIDELEPQRRNAWCGSIGYLSFCGNMDTSITIRTLTAINGQIFCSAGGGIVADSQEEAEYQETFDKVNRILKQLEK

Target: Escherichia coli (laboratory strain)
Assay: barcode share on antibiotic plates over drug-free plates; higher = less susceptible
Experimental: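 A pool of E. coli strains, each edited to carry one amino-acid change in an essential protein, was grown for 48 h on minimal glucose agar with or without antibiotic; strain barcodes were sequenced; mean of two replicates.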

[1] = antibiotic: carbenicillin, 2× MIC (3.1 µg/mL)
[2] = antibiotic: gentamicin, 2× MIC (MIC 0.45 µg/mL)

Protein | fold change of barcode share [1] | fold change of barcode share [2]
B1 | 3.082 ± 0.01 | 0.119 ± 0.074
B2 | 0.397 ± 0.039 | –
B3 | 0.436 ± 0.074 | –
B4 | 1.34 ± 0.83 | 0.0213 ± 0.0099
B5 | 1.49 ± 0.16 | 0.0228 ± 0.022
B6 | 2.108 ± 0.012 | 0.011 ± 0.0039

From the supplement of paper PMC11876631
